Measurements published in PubChem BioAssay AID1347165 (National Center for Advancing Translational Sciences (NCATS), 2019).
About 5,700 (2.6%) of roughly 220,000 compounds were called active. The inconclusive results got no clear call from the source; some entries with a clear call stand among them for comparison. Calls come from the whole dose curve; as a rule, active = well fitted inhibition curve with a large enough effect; inconclusive = small, poorly fitted or top-dose-only effect; inactive = no such curve, though single readings can be large or run the other way. Potencies of inconclusive entries are doubtful fits and often do not repeat.

molecular target: Lysine-specific demethylase 5B (Homo sapiens) (UniProt Q9UGL1); test: Primary screen for KDM5B Histone Demethylases FDH-coupled qHTS; details: FDH-coupled NADH fluorescence (FDH is formaldehyde dehydrogenase); activity change, negative = inhibition: at 57.7 µM (top of the series) unless noted; note: nearly all actives have a fitted effect of over 70% in size; for activity change, negative = inhibition: 0% is about no effect
In short: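 Compound dilutions met 200 nM (final) KDM5BΔAP for 10 min at room temperature before substrate addition. The substrate mix held 12.5 µM H3K4me3 with cofactors 25 µM α-ketoglutarate and 50 µM Fe²⁺. NADH signal gain over 30 min defined activity.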
Potency is the fitted concentration of half-maximal effect; tags give direction and shape of the fitted curve.

Sequence of UniProt Q9UGL1 (Q9UGL1 whole entry, looked up): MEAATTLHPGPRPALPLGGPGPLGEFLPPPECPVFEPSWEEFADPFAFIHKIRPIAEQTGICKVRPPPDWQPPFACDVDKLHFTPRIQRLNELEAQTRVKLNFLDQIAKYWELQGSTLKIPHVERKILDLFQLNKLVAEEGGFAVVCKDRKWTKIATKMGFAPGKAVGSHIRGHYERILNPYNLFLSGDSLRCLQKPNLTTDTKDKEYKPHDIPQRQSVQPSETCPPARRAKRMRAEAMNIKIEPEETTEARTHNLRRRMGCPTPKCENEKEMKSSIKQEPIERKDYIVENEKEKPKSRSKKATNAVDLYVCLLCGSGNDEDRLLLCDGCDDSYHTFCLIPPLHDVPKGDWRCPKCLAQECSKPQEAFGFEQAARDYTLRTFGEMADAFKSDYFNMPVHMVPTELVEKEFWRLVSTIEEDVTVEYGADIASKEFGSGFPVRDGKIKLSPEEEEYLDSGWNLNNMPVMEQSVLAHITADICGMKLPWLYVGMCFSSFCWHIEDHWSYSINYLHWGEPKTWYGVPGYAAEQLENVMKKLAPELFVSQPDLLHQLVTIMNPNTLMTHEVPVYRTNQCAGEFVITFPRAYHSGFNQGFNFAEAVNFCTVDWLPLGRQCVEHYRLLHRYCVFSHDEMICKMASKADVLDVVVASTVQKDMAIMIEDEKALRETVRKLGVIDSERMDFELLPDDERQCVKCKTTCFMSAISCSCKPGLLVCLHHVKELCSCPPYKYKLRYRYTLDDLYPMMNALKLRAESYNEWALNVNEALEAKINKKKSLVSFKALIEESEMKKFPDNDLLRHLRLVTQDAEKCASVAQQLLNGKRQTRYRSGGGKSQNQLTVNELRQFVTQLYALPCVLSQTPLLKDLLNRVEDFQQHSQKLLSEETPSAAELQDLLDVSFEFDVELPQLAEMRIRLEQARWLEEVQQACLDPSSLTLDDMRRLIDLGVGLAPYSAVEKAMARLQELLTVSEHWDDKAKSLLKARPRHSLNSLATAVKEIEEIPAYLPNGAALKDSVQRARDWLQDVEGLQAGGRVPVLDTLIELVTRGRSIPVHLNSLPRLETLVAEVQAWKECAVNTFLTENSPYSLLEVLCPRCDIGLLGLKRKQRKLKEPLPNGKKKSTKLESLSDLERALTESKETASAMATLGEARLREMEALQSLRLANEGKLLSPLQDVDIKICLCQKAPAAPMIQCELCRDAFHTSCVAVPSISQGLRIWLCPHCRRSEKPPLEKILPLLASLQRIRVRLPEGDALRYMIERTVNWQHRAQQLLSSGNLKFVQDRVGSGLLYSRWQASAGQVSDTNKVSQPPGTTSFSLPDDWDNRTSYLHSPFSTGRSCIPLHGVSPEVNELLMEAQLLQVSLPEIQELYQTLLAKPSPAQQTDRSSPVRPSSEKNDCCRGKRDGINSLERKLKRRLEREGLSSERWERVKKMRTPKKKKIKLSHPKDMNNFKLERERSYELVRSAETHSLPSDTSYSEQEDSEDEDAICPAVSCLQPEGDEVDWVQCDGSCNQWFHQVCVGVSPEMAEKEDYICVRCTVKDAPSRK

Row | SMILES | Potency | activity change, negative = inhibition
1 | O=C(O)c1ccc2nc(-c3cc4cc(F)ccc4oc3=O)[nH]c2c1 | inconclusive: 31.6 µM [inhibitor, partial curve, poor fit] | 
2 | COC1CN(C2CCN(C(=O)c3cnccn3)CC2)C12CCOCC2 (stereo unspecified) | inconclusive: 3.98 µM [inhibitor, partial curve] | 
3 | Cc1cc(N2CCN(Cc3nc(C)no3)CC2)nc(C(C)C)n1 |  | inactive: 4.18%
4 | CCC1CCCCN1C(=O)CSc1nc2c([nH]c3ccccc32)c(=O)n1-c1cccc(OC)c1 (stereo unspecified) | inconclusive: 25.1 µM [inhibitor, partial curve, poor fit] | 
5 | c1ccc(C(Nc2ccc3nnnn3n2)c2ccccn2)cc1 (stereo unspecified) |  | inactive: 8.67%
6 | Cc1oc(-c2nc(C#N)c(N(C)Cc3ccccc3)o2)cc1S(=O)(=O)N(C)C | inconclusive: 14.1 µM [inhibitor, partial curve, poor fit] | 
7 | Cc1cc2cccc(C(=O)N[C@H]3CCOC[C@H]3C3CCOCC3)c2o1 | inconclusive: 22.4 µM [inhibitor, partial curve, poor fit] | 
8 | Cc1ccc(-c2csc(CCn3nc(C)c4c(C(F)(F)F)cc(=O)[nH]c43)n2)cc1 | inconclusive: 8.91 µM [inhibitor, partial curve, poor fit] | 
9 | CNS(=O)(=O)c1cccc(C(=O)OCC(=O)c2c(N)n(C)c(=O)n(C)c2=O)c1 | inconclusive: 39.8 µM [inhibitor, single point] | 
10 | COc1ccc(NC(=O)C2CC(=O)N(c3n[nH]c4cc(Br)ccc34)C2)cc1 (stereo unspecified) | inconclusive: 14.1 µM [inhibitor, partial curve] | 
11 | O=C(/C=C/c1cccs1)c1cccc(O)c1 |  | inactive: -27.1%
12 | CN(Cc1ccccc1C(F)(F)F)C(=O)Cc1cccc(Cl)c1 |  | inactive: -11.1% [at 86.2 µM]
13 | O=C(Nc1ccc2oc(-c3cccnc3)nc2c1)c1ccc(-c2ccccc2)o1 | inconclusive: 39.8 µM [inhibitor, single point] | 
14 | C[S+](=O)([O-])N1Cc2ccccc2CC2(CCCCN2CC2CCCC2)C1 (stereo unspecified) | inconclusive: 50.1 µM [inhibitor, partial curve] | 
15 | Cc1nn(-c2nc(-c3ccc(F)cc3)cc(C(F)(F)F)n2)c(C)c1Cl | inconclusive: 2 µM [inhibitor, partial curve, poor fit] | 
16 | O=c1cc(N2CCOCC2)oc2c(N3CCOCC3)nccc12 | inconclusive: 28.2 µM [inhibitor, partial curve, poor fit] | 
17 | COc1ccc(-c2ccc(=O)n(CC(=O)NCc3cccnc3)n2)c(F)c1 |  | inactive: -27.8%
18 | COc1ccc(CNc2nccc(-c3c(C)nn(C)c3C)n2)cc1OC | inconclusive: 22.4 µM [inhibitor, partial curve, poor fit] | 
19 | O=C(NCc1nnc2n1C(C(=O)N1CCN(c3ncccn3)CC1)CC2)C1CC1 (stereo unspecified) | inconclusive: 50.1 µM [inhibitor, partial curve, poor fit] | 
20 | O=c1[nH]c(C2CCCN(Cc3cccc(-c4ccsc4)c3)C2)nc2ccc(F)cc12 (stereo unspecified) | inconclusive: 28.2 µM [inhibitor, single point] | 
21 | CC12CNC3(C#N)CC1CCC32C (stereo unspecified) |  | inactive: -2.69%
22 | CCCOc1ccc(C(=O)C(CCC(CNC(C)(C)C)C(=O)c2ccc(OCCC)cc2)CNC(C)(C)C)cc1 (stereo unspecified) | inconclusive: 17.8 µM [inhibitor, partial curve, poor fit] | 

Row | SMILES | Potency | activity change, negative = inhibition
23 | COc1ccc(-c2nnc3ccc(NCCc4ccccn4)nn23)nc1 | active: 39.8 µM | 
24 | CN1CCCCC1C(=O)NCc1cccnc1Oc1cccc(C(F)(F)F)c1 (stereo unspecified) |  | inactive: 43.1%
25 | CCOC(=O)c1cc2cc(Oc3cccc(C)c3)ccc2n1C | inconclusive: 14.1 µM [inhibitor, partial curve, poor fit] | 
26 | COc1cccc(CNC(=O)Cc2c(C)c3c(cc(C)c4c(C)coc43)oc2=O)c1 | inconclusive: 10 µM [inhibitor, partial curve, poor fit] | 
27 | Cc1ccc(Cl)cc1-n1ccc2c(cnc3nc(C(F)(F)F)nn32)c1=O | inconclusive: 22.4 µM [inhibitor, partial curve, poor fit] | 
28 | O=C(NC1CCCCC1)c1cnn2c(C(F)(F)F)cc(-c3ccco3)nc12 | inconclusive: 39.8 µM [inhibitor, single point] | 
29 | CC(C)c1nc(CNC(=O)c2ccc(NC3CCCCC3)nc2)no1 | active: 22.4 µM | 
30 | O=C1c2c(-c3nc(-c4ccsc4)no3)nnn2CCN1Cc1cc(F)cc(F)c1 |  | inactive: -14.6%
31 | COc1ccc(-c2nn(-c3ccccc3)cc2CN2CCC(F)CC2)c(F)c1 | inconclusive: 4.47 µM [inhibitor, full curve] | 
32 | COc1ccc(-c2noc([C@@H]3CCCN3C(=O)CCc3ccccc3)n2)cc1OC | active: 28.2 µM | 
33 | COc1ccc(OC)c(CNC(=O)CCCn2nc(C)c3c(C)n(-c4ccc(C)cc4)nc3c2=O)c1 | inconclusive: 15.8 µM [inhibitor, partial curve, poor fit] | 
34 | COc1ccc(-c2cc(N3CCCC(NC(=O)C4CCN(C(C)=O)CC4)C3)n[nH]2)cc1 (stereo unspecified) | inconclusive: 17.8 µM [inhibitor, single point] | 
35 | CCc1c(C)sc(NC(=O)c2cc(-c3ccc(C)cc3C)nc3ccccc23)c1C#N | inconclusive: 28.2 µM [inhibitor, partial curve, poor fit] | 
36 | CC(C)c1ccc(NS(=O)(=O)c2ccc3[nH]cc(C(=O)N4CCCC4)c(=O)c3c2)cc1 | inconclusive: 2.24 µM [inhibitor, full curve, poor fit] | 
37 | CC1=C[C@@H](CNS(=O)(=O)Cc2ccccc2)[C@H](C(C)C)C[C@H]1CC(=O)N1CCN(C)CC1 | inconclusive: 28.2 µM [inhibitor, single point] | 
38 | Cc1ccc(C(CNC(=O)c2cc3ccccc3oc2=O)N(C)C)o1 (stereo unspecified) | inconclusive: 25.1 µM [inhibitor, single point] | 
39 | Cc1[nH]c2ccccc2c1CC(=O)N1CC[C@@](O)(C2CCOCC2)[C@H](C)C1 | inconclusive: 35.5 µM [inhibitor, partial curve, poor fit] | 
40 | O=C(/C=C/c1cccc(O)c1)c1ccc(-c2cccs2)cc1 | inconclusive: 25.1 µM [inhibitor, partial curve, poor fit] | 
41 | COc1ccc(-c2nc(CN3CCC(CO)CC3)c(C)o2)c2ccccc12 | active: 25.1 µM | 
42 | O=C1COc2ccc3ccccc3c21 | inconclusive: 25.1 µM [inhibitor, single point] | 
43 | COCc1cc(N2CCN(Cc3ccccc3C#N)CC2)ncn1 | inconclusive: 25.1 µM [inhibitor, single point] | 
44 | Cn1cc(C(=O)N2CCN(S(=O)(=O)c3cc(F)ccc3F)CC2)c2ccccc21 |  | inactive: 13.9%

Row | SMILES | Potency | activity change, negative = inhibition
45 | Cc1cc(CSc2ncccc2C(=O)Nc2ccnn2Cc2ccccn2)no1 | inconclusive: 25.1 µM [inhibitor, single point] | 
46 | CN(CC12CC3CC(CC(C3)C1)C2)C(=O)CCc1ccccc1O |  | inactive: 15.6%
47 | CCOc1cc(/C=C/C(=O)c2ccccc2Cl)cc(Cl)c1O | inconclusive: 39.8 µM [inhibitor, single point] | 
48 | COc1ccc2c(c1)-c1nc(NC(=O)c3ccc(C)cc3)sc1CC2 | inconclusive: 35.5 µM [inhibitor, partial curve, poor fit] | 
49 | Cc1ccc(C#N)c(N2CCCC(c3nccn3CC3CCC3)C2)n1 (stereo unspecified) | active: 31.6 µM | 
50 | CC(C)C[C@@H]1N[C@H](C(=O)NC(C)C)Cc2cn(Cc3ccccn3)c3cccc1c23 |  | inactive: -15.6% [at 86.2 µM]
51 | CCOc1ccc(C(=O)Nc2ccc3oc(C)nc3c2)cc1OCC |  | inactive: -8.51%
52 | CCn1nc(C(=O)N(C)Cc2ccccc2N2CCCC2)c2ccccc2c1=O |  | inactive: -7.32%
53 | Cn1c(=O)c2c(ncn2CC(O)COc2cccc3ccccc23)n(C)c1=O (stereo unspecified) |  | inactive: 8.9%
54 | COc1ccc(C(=O)N2CCCC(N3CCN(c4ccc(F)cc4)CC3)C2)o1 (stereo unspecified) | inconclusive: 6.31 µM [inhibitor, single point] | 
55 | Cc1ccc2nc(N(Cc3cccnc3)C(=O)c3ccc4c(c3)OCCO4)sc2c1 |  | inconclusive: -34% [inhibitor]
56 | OC1(CN2CCCCC2)CCN(c2cccc(C(F)(F)F)n2)C1 (stereo unspecified) | active: 28.2 µM | 
57 | COc1ccc(CN2CCCC3(CC(c4cccc(C(F)(F)F)c4)=NO3)C2)cc1 (stereo unspecified) | inconclusive: 1.58 µM [inhibitor, full curve, poor fit] | 
58 | Cc1cnc(C(=O)N2CCCC(Cc3noc(-c4cnccn4)n3)C2)cn1 (stereo unspecified) | inconclusive: 35.5 µM [inhibitor, single point] | 
59 | CCN(C(=O)C1CCN(c2oc(-c3ccco3)nc2C#N)CC1)c1ccccc1C | inconclusive: 22.4 µM [inhibitor, partial curve, poor fit] | 
60 | Cn1ncc(N2CCCC(CC(=O)NC3CCCCC3)C2)cc1=O (stereo unspecified) |  | inactive: -10.2%
61 | O=c1oc2ccccc2cc1-c1csc(Nc2ccccc2Cl)n1 | inconclusive: 39.8 µM [inhibitor, single point] | 
62 | CCOc1ccccc1CNC(=O)c1cnc2sc(N3CCCC3)nn2c1=O | inconclusive: 3.16 µM [inhibitor, full curve, poor fit] | 
63 | CCC(CO)Nc1ncnc2c1cnn2-c1ccc(C)cc1 (stereo unspecified) | inconclusive: 31.6 µM [inhibitor, partial curve, poor fit] | 
64 | O=S(=O)(Nc1nc2ccccc2nc1NCCc1ccccc1)c1ccccc1 | inconclusive: 11.2 µM [inhibitor, partial curve, poor fit] | 
65 | O=C(COC(=O)c1ccc2ccccc2n1)Nc1ccc2ccccc2c1 |  | inactive: 9.27%
66 | O=C(c1cncc(N2CCCC(CCc3cccc(F)c3)C2)n1)N1CCCCC1 (stereo unspecified) | active: 25.1 µM | 
